The other results are listed elsewhere or left out. At the low end of the ranking, values are background and their order means little.

The target in the assay is T1, GST-Rok-C97-191 (UniProt O34857).
T1 sequence: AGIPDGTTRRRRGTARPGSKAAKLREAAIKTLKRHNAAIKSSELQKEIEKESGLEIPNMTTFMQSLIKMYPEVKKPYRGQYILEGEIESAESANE
Put plainly: protein binding microarray.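 Note: rank score from −0.5 (least bound) to 0.5 (best bound).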 Particulars: Rok is a gene silencer of Bacillus subtilis; high values mean tight binding; most listed sequences are background and not binding sites; double strand, one strand shown.
For the sequence ATCGAGAG, the binding signal came out at 0.0367 E-score.
Consider ACGGCGGG, for which the binding signal was -0.134 E-score.
In the case of CACCAGTG it was -0.000289 E-score; in that of GCTTTGGA, -0.076 E-score; in that of ACGCCAGC, -0.105 E-score.
In the case of AAAGTGCA it was -0.0234 E-score; in that of AGGCTGCA, -0.131 E-score; in that of ACATTTGC, 0.205 E-score.
The sequence CAAACAAA returned a binding signal of -0.186 E-score.
CATGTGAC: the binding signal turned out to be 0.0514 E-score.
Take CCTAAGTA: the binding signal stood at 0.0428 E-score.
As for AGAATCGA, the binding signal was -0.163 E-score.
As to ATGACGGG, the binding signal is -0.176 E-score.
In the case of GGCGTCAC it was -0.266 E-score; in that of CACCCTAA, -0.0478 E-score; in that of CAACGATG, -0.138 E-score.
In the case of CCGTCATA it was -0.0619 E-score; in that of CTCAGCTC, -0.34 E-score.
In the case of CGAATCCG it was -0.0422 E-score; in that of CTCATTTC, -0.0889 E-score; in that of GGACACTA, 0.00822 E-score.
In turn, CATCAAGG came in with a binding signal of -0.316 E-score.
In the case of GTGGATCA it was -0.0318 E-score; in that of TCTCGTAA, -0.0374 E-score; in that of CCCCCTAA, -0.209 E-score.
In the case of GGCGCGTA it was 0.0908 E-score; in that of ACTCAGAA, -0.0517 E-score.
Take ATGAACCC: the binding signal is -0.206 E-score.
On to CAGCAGCG, for which the binding signal is -0.131 E-score.
In the case of GAGCTTTA it was 9.88e-05 E-score; in that of AATGGGTA, 0.181 E-score.
The value for AGGATGAA was -0.145 E-score; that for AGTTGACC was -0.0633 E-score.
In the case of CATAATAG it was 0.136 E-score.
As for CAAGCACC, the binding signal was -0.14 E-score.
The value for ATGCGCCG was -0.139 E-score; that for AAAGCGAC was -0.0243 E-score.
In the case of ATCCTGTG it was 0.0425 E-score; in that of ATGTTTTA, 0.11 E-score.
Sequence AAAATATT returned a binding signal of 0.327 E-score.
Consider AGCCATAA, for which the binding signal amounted to 0.127 E-score.
CAAACATA: the binding signal was determined as 0.192 E-score.
In the case of AGCTCCCG it was -0.258 E-score; in that of ATTCTTCC, 0.0679 E-score; in that of AGTCGTCG, -0.0572 E-score.
The value for GCTTGATA was 0.104 E-score.
In the case of CTTGAAAG it was -0.00319 E-score; in that of AATTGAAC, -0.0536 E-score; in that of GGACTAGA, 0.118 E-score.
As for CCATGACC, the binding signal was -0.229 E-score.
CTAGACTC registered a binding signal of -0.114 E-score.
CGTCTCCC displayed a binding signal of -0.206 E-score.
Sequence TCTTATAA displayed a binding signal of 0.179 E-score.
Regarding CTTAGGTA, the binding signal is 0.121 E-score.
Take ATACAATG: the binding signal stood at 0.259 E-score.
In the case of AATGCGGT it was 0.0639 E-score; in that of AATAACGG, 0.0506 E-score.
In the case of CATGGTGC it was -0.16 E-score.
The value for TCGTTTCA was -0.0845 E-score.
For the sequence ACCAAAAC, the binding signal is -0.044 E-score.
In the case of CTAACACC it was 0.017 E-score; in that of CACCTTCC, -0.284 E-score; in that of AAGCTAAG, -0.182 E-score.
The value for CGAGGCAA was 0.0333 E-score; that for CAGCGCGA was 0.167 E-score; that for GGTGTGAA was -0.134 E-score.
In the case of AATCGTAG it was 0.166 E-score.
ACCCTACG yielded a binding signal of -0.0398 E-score.
Sequence ACTTTTTA had a binding signal of 0.167 E-score.
The value for AGGTCTGC was -0.0668 E-score; that for GCTTCATA was -0.054 E-score.
In the case of CTGACCCA it was -0.0521 E-score; in that of ATCTGAGG, -0.13 E-score.
Turning to GCATAGAA, the binding signal is 0.105 E-score.
For GTGTCGGA, the binding signal is -0.109 E-score.
In the case of ACTCTGCC it was -0.189 E-score; in that of GAAATCTA, 0.383 E-score; in that of GACTGAGA, -0.13 E-score.
Turning to AGCATTTA, the binding signal is 0.102 E-score.
Consider ATAACGAA, for which the binding signal was 0.263 E-score.
In the case of CAGCAAAA it was -0.224 E-score.
The value for GAACTGTC was -0.0656 E-score; that for AGATCTTG was 0.183 E-score; that for GAGGACGC was -0.276 E-score.
In the case of ACTGCTCT it was -0.185 E-score.
Take CGTGGGCA: the binding signal is -0.271 E-score.
In the case of ACCTGTCT it was -0.0209 E-score; in that of AATGTTAT, 0.181 E-score.
In the case of ATGTGAAG it was 0.221 E-score; in that of AACCTCCA, -0.174 E-score.
The value for GTGTGTCA was -0.00182 E-score; that for CCAGGACA was -0.19 E-score.
Consider AACGCGCC, for which the binding signal was -0.193 E-score.
CGCAGGTA registered a binding signal of 0.0863 E-score.
The sequence AGAGGAAC yielded a binding signal of -0.0699 E-score.
With ACCTAGCA, the binding signal is 0.03 E-score.
The value for CCCGGCTC was -0.226 E-score; that for ACGAAAGT was 0.208 E-score.
In the case of ACTGGCCG it was -0.0305 E-score.
The value for AGCGGGCC was -0.341 E-score; that for AGTCTTCG was -0.016 E-score.
GCAACTGC showed a binding signal of -0.302 E-score.
In the case of ATGTCTCC it was -0.0346 E-score.
In the case of CTCGCTGA it was -0.146 E-score; in that of GACTAGGC, -0.149 E-score; in that of AAGAGCGG, -0.271 E-score.
For CGAAGCCA, the binding signal was -0.0573 E-score.
Take CAGATGCC: the binding signal was -0.277 E-score.
ATTACCTC displayed a binding signal of 0.136 E-score.
In the case of CAAAGGTC it was -0.219 E-score.
Take ACCCAATC: the binding signal was -0.121 E-score.
In turn, AACCATTA had a binding signal of 0.192 E-score.
The value for GCCATTAC was 0.0845 E-score; that for GCGAACGC was -0.274 E-score; that for GCAGCCGC was -0.228 E-score.
For ACGAACGA, the binding signal is -0.222 E-score.
In the case of CCTTTTGA it was -0.0836 E-score; in that of CGAATACA, 0.242 E-score.
Regarding CCACACGC, the binding signal was -0.0316 E-score.
In turn, ACCTTATA had a binding signal of 0.0173 E-score.
As for AAAGCAGT, the binding signal was -0.16 E-score.
On to CGGCCGAG, for which the binding signal is -0.169 E-score.
Consider TAGTCGCA, for which the binding signal stood at 0.00372 E-score.
In turn, GTTCCAGA returned a binding signal of -0.0546 E-score.
In the case of AGTATGCA it was -0.0313 E-score; in that of CACACCTG, -0.125 E-score; in that of GCATACTA, 0.241 E-score.
For CCCGCCGA, the binding signal is -0.0717 E-score.
The value for CCACCACC was -0.0918 E-score; that for TATAACAA was 0.0846 E-score; that for CGCCACCG was -0.0411 E-score.
In turn, CGATAGGC displayed a binding signal of 0.0441 E-score.
In the case of ATTTAGTG it was 0.0465 E-score; in that of CCTGTGAG, -0.174 E-score; in that of AATTGAGG, 0.00998 E-score.
In the case of ACAATCTA it was 0.281 E-score; in that of CTCGAGGA, -0.0254 E-score.
The value for AGAACTGA was 0.202 E-score.
ATAAAGAT: the binding signal was 0.163 E-score.
The sequence AAATCAGC came in with a binding signal of 0.000954 E-score.
With ACCCAAGG, the binding signal was -0.304 E-score.
The value for ACAGAGGC was -0.178 E-score; that for TAACAATA was 0.292 E-score.
The value for AGGTCGCG was -0.12 E-score; that for CGTCGTAA was 0.0645 E-score.
AATACGGG gave a binding signal of 0.0951 E-score.
In the case of ACTGGCCA it was 0.0167 E-score; in that of CGCGTGGA, -0.235 E-score; in that of GGCGACCA, -0.149 E-score.
For ATGTTGTC, the binding signal was -0.0124 E-score.
The value for AGATACAG was -0.00756 E-score; that for ACAGACCC was -0.142 E-score; that for AAATATCT was 0.302 E-score.
In the case of ATAAGAGG it was 0.0772 E-score; in that of GGGGCCAA, 0.0462 E-score; in that of ATAAGCGC, 0.113 E-score.
In the case of CTGTAACA it was -0.00852 E-score; in that of CGCCGGCG, -0.423 E-score.
Regarding ATCCATAG, the binding signal is -0.00373 E-score.
The value for ACCTTACC was -0.0191 E-score; that for CGGCACCG was -0.268 E-score; that for AAGCTGGG was -0.148 E-score.
The value for AGACCTAA was 0.0335 E-score.
As for ACCTCTAT, the binding signal is -0.0671 E-score.
In the case of ATTGCATA it was 0.108 E-score; in that of CACGATGA, -0.103 E-score.
Take GAGGAGTA: the binding signal was -0.0605 E-score.
ACCTTGGC had a binding signal of -0.158 E-score.
In the case of TTACCAAA it was 0.243 E-score; in that of CTTATGAC, 0.214 E-score; in that of AAGTCCTG, -0.0707 E-score.
The value for CAACCTGC was -0.149 E-score.

The record behind these values is article PMC6212790.
